Assay results published in the supplement of paper PMC8728848.
This is one part of the list.

How the values were obtained:
Assay in all cases: glycan array binding signal (z-score within array); higher = stronger binding
Details in all cases: glycan notation: IUPAC condensed, linker removed
Neu5Ac(a2-8)Neu5Ac = molecular target: Neu5Ac(a2-8)Neu5Ac
Summary of the method: (§1)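 The binding signal is a Z-score computed within each array and averaged over linkers. Arrays of the same protein sequence at different concentrations or buffers were also averaged together. Data originate from 3228 arrays in the Consortium for Functional Glycomics database, kept only where the protein sequence was available.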

[1] = molecular target: Neu5Ac(a2-8)Neu5Ac(a2-3)Gal(b1-3)GalNAc(b1-4)[Neu5Ac(a2-3)]Gal(b1-4)Glc
Summary of the method: as §1

[2] = molecular target: Neu5Ac(a2-8)Neu5Ac(a2-3)Gal(b1-3)GalNAc(b1-4)[Neu5Ac(a2-8)Neu5Ac(a2-3)]Gal(b1-4)Glc
Summary of the method: as §1

[3] = molecular target: Neu5Ac(a2-8)Neu5Ac(a2-3)Gal(b1-4)Glc
Summary of the method: as §1

[4] = molecular target: Neu5Ac(a2-8)Neu5Ac(a2-3)Gal(b1-4)GlcNAc
Summary of the method: as §1

[5] = molecular target: Neu5Ac(a2-8)Neu5Ac(a2-3)[Gal(b1-3)GalNAc(b1-4)]Gal(b1-4)Glc
Summary of the method: as §1

[6] = molecular target: Neu5Ac(a2-8)Neu5Ac(a2-3)[GalNAc(b1-4)]Gal(b1-4)Glc
Summary of the method: as §1

[7] = molecular target: Neu5Ac(a2-8)Neu5Ac(a2-8)Neu5Ac
Summary of the method: as §1

[8] = molecular target: Neu5Ac(a2-8)Neu5Ac(a2-8)Neu5Ac(a2-3)Gal(b1-4)Glc
Summary of the method: as §1

[9] = molecular target: Neu5Ac(a2-8)Neu5Ac(a2-8)Neu5Ac(a2-3)[Gal(b1-3)GalNAc(b1-4)]Gal(b1-4)Glc
Summary of the method: as §1

[10] = molecular target: Neu5Ac(a2-8)Neu5Ac(a2-8)Neu5Ac(a2-3)[GalNAc(b1-4)]Gal(b1-4)Glc
Summary of the method: as §1

[11] = molecular target: Neu5Ac(a2-8)Neu5Ac(a2-8)Neu5Ac(a2-8)Neu5Ac(a2-3)[GalNAc(b1-4)]Gal(b1-4)Glc
Summary of the method: as §1

[12] = molecular target: Neu5Ac(a2-8)Neu5Gc(a2-3)Gal(b1-4)GlcNAc
Summary of the method: as §1

[13] = molecular target: Neu5Ac(b2-6)Gal(b1-4)GlcNAc
Summary of the method: as §1

Neu5Ac(b2-6)GalNAc = molecular target: Neu5Ac(b2-6)GalNAc
Summary of the method: as §1

[14] = molecular target: Neu5Ac9Ac(a2-3)Gal(b1-3)GlcNAc
Summary of the method: as §1

[15] = molecular target: Neu5Ac9Ac(a2-3)Gal(b1-4)GlcNAc
Summary of the method: as §1

[16] = molecular target: Neu5Ac9Ac(a2-6)Gal(b1-4)GlcNAc
Summary of the method: as §1

[17] = molecular target: Neu5Gc(a2-3)Gal(b1-3)GlcNAc
Summary of the method: as §1

[18] = molecular target: Neu5Gc(a2-3)Gal(b1-3)[Fuc(a1-4)]GlcNAc
Summary of the method: as §1

Neu5Gc(a2-3)Gal(b1-4)Glc = molecular target: Neu5Gc(a2-3)Gal(b1-4)Glc
Summary of the method: as §1

[19] = molecular target: Neu5Gc(a2-3)Gal(b1-4)GlcNAc
Summary of the method: as §1

[20] = molecular target: Neu5Gc(a2-3)Gal(b1-4)GlcNAc(b1-3)Gal(b1-4)GlcNAc(b1-2)Man(a1-3)[Neu5Gc(a2-3)Gal(b1-4)GlcNAc(b1-3)Gal(b1-4)GlcNAc(b1-2)Man(a1-6)]Man(b1-4)GlcNAc(b1-4)GlcNAc
Summary of the method: as §1

[21] = molecular target: Neu5Gc(a2-3)Gal(b1-4)[Fuc(a1-3)]GlcNAc
Summary of the method: as §1

[22] = molecular target: Neu5Gc(a2-6)Gal(b1-4)GlcNAc
Summary of the method: as §1

Neu5Gc(a2-6)GalNAc = molecular target: Neu5Gc(a2-6)GalNAc
Summary of the method: as §1

[23] = molecular target: Neu5Gc(a2-8)Neu5Ac(a2-3)Gal(b1-4)GlcNAc
Summary of the method: as §1

[24] = molecular target: Neu5Gc(a2-8)Neu5Gc(a2-3)Gal(b1-4)GlcNAc
Summary of the method: as §1

[25] = molecular target: Neu5Gc(a2-8)Neu5Gc(a2-3)Gal(b1-4)GlcNAc(b1-3)Gal(b1-4)GlcNAc
Summary of the method: as §1

[26] = molecular target: Neu5Gc(a2-8)Neu5Gc(a2-6)Gal(b1-4)GlcNAc
Summary of the method: as §1

[27] = molecular target: Neu5Gc(b2-6)Gal(b1-4)GlcNAc
Summary of the method: as §1

B1: EULS2 M2 (Oryza sativa) (protein)
chain: MVYCRANPNYAMTARNGAVVLAPANPKDEYQHWIKDMRWSTSIKDEEGYPAFALVNKATGQAIKHSLGQSHPVRLVPYNPEVMDESVLWTESRDVGNGFRCIRMVNNIYLNFDAFHGDKYHGGVRDGTDIVLWKLCEGDSQRWKIQPYYILEQKLISEEDLNSAVDHHHHHH
Neu5Ac(a2-8)Neu5Ac
  glycan array binding signal (z-score): -0.363
[1]
  glycan array binding signal (z-score): -0.748
[2]
  glycan array binding signal (z-score): -0.295
[3]
  glycan array binding signal (z-score): -0.496
[4]
  glycan array binding signal (z-score): -0.336
[5]
  glycan array binding signal (z-score): -0.202
[6]
  glycan array binding signal (z-score): -0.465
[7]
  glycan array binding signal (z-score): -0.125
[8]
  glycan array binding signal (z-score): -0.085
[9]
  glycan array binding signal (z-score): 0.078
[10]
  glycan array binding signal (z-score): -0.523
[11]
  glycan array binding signal (z-score): -0.212
[12]
  glycan array binding signal (z-score): -0.865
[13]
  glycan array binding signal (z-score): -0.38
Neu5Ac(b2-6)GalNAc
  glycan array binding signal (z-score): -0.415
[14]
  glycan array binding signal (z-score): 0.409
[15]
  glycan array binding signal (z-score): -0.37
[16]
  glycan array binding signal (z-score): -0.559
[17]
  glycan array binding signal (z-score): -0.348
[18]
  glycan array binding signal (z-score): -0.376
Neu5Gc(a2-3)Gal(b1-4)Glc
  glycan array binding signal (z-score): 0.111
[19]
  glycan array binding signal (z-score): 0.191
[20]
  glycan array binding signal (z-score): 0.09
[21]
  glycan array binding signal (z-score): -0.551
[22]
  glycan array binding signal (z-score): -0.401
Neu5Gc(a2-6)GalNAc
  glycan array binding signal (z-score): 0.154
[23]
  glycan array binding signal (z-score): -0.437
[24]
  glycan array binding signal (z-score): -0.425
[25]
  glycan array binding signal (z-score): -0.188
[26]
  glycan array binding signal (z-score): -0.339
[27]
  glycan array binding signal (z-score): 0.485
